Assay results as given in PubChem BioAssay AID686978 (National Center for Advancing Translational Sciences (NCATS), 2013).
The campaign covered roughly 420,000 compounds. About 64,000 (15%) were called active. Inconclusive means that the source gave no clear call. Such entries were picked first, then a sample of the others. Calls come from the whole dose curve; as a rule, active = well fitted inhibition curve with a large enough effect; inconclusive = small, poorly fitted or top-dose-only effect; inactive = flat fitted curve, though single readings scatter. No potency is given beside an inconclusive call; the fits are too rough.

Experiment: qHTS for Inhibitors of human tyrosyl-DNA phosphodiesterase 1 (TDP1): qHTS in cells in absence of CPT; note: nearly all actives have a fitted effect of over 55% in size
Settings: DT40 Tdp1-/- hTDP1 cells, no CPT, ATP luminescence, 48 h; series mostly up to 46.2 µM
Method in brief: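 Growth kinetics read by CellTiter-Glo luminescence after ≥48 hr at 37 °C. Cells: DT40 Tdp1-/- stably carrying human TDP1, 400 per well, compound exposure in the absence of CPT (DMSO vehicle).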
Potency is the fitted concentration of half-maximal effect; tags give direction and shape of the fitted curve.

Row | Structure (SMILES) | Potency
1 | CCCC(=O)N1CCC1(C)C(=O)Nc1ccc(-n2cccc2)cc1 (configuration not stated) | inconclusive [inhibitor, single point]
2 | CCN(CC)C(=O)c1sc2nc(-c3cccs3)cc(-c3cccs3)c2c1N | inconclusive [inhibitor, partial curve]
3 | CCC(CO)Nc1ccn2nc(-c3ccccc3)cc2n1 (configuration not stated) | inconclusive [inhibitor, partial curve]
4 | CCCC(=O)C1=C(O)C(C(=O)OC)C(C)(C)CC1=NC (configuration not stated) | inactive
5 | CN1C/C(=C/c2ccsc2)C(=O)/C(=C/c2ccsc2)C1 | active: 13 µM
6 | CC(=O)Nc1ccc(SCC(=O)N2CCN(S(=O)(=O)c3ccccc3)CC2)cc1 | inconclusive [inhibitor, single point]
7 | COc1ccc(CN(Cc2cc3cccc(C)c3[nH]c2=O)C(=O)N(C)C)cc1 | inactive
8 | O=[N+]([O-])c1ccc(C=C2c3ccccc3-c3ccccc32)cc1 | active: 17.8 µM
9 | COc1ccccc1C(=O)NCc1ccc2c(c1)CCN2C(=O)c1cccc(C)c1 | inconclusive [inhibitor, partial curve]
10 | CN(CC(=O)Nc1cccc2c1CCCC2)S(=O)(=O)c1ccc(Br)cc1 | inconclusive [inhibitor, partial curve]
11 | CCc1cccc(C)c1NC(=O)COC(=O)c1cc([N+](=O)[O-])ccc1N1CCOCC1 | inactive
12 | Nc1nc(NCc2ccccc2Cl)c2[nH]cnc2n1 | inconclusive [inhibitor, single point]
13 | C/C=C/Cn1c(SC)nc2c1c(=O)[nH]c(=O)n2C | inconclusive [inhibitor, single point]
14 | N#CC(c1ccccc1)N(CCCCl)C(=O)c1ccc(Br)cc1 (configuration not stated) | inconclusive [inhibitor, single point]
15 | COc1ccc(-c2noc(CSc3nc4ccccc4c(=O)n3-c3ccccc3)n2)cc1 | inconclusive [inhibitor, single point]
16 | CCc1ccccc1Nc1nn2c(=O)c3ccc(C(=O)NCc4cccs4)cc3nc2s1 | active: 20.6 µM
17 | CCOC(=O)CSc1nc2nc(Cl)c(Cl)nc2[nH]1 | inconclusive [inhibitor, single point]
18 | CCCCNC(=S)N1CCN(c2ccc(C(C)=O)cc2)CC1 | inconclusive [inhibitor, single point]
19 | Cc1ccc2ncnc(Nc3cccc([N+](=O)[O-])c3)c2c1 | inconclusive [inhibitor, partial curve]
20 | CCOC(=O)c1cnn(-c2ccccc2)c1-n1cccc1C(=O)C(=O)Nc1ccccc1 | inconclusive [inhibitor, single point]
21 | Cc1ccc(NC(=O)CCC(=O)NNS(=O)(=O)c2ccccc2)c(C)c1 | inconclusive [inhibitor, single point]
22 | O=Cc1cc2cc3c(cc2nc1Cl)OCCO3 | inconclusive [inhibitor, single point]
23 | O=C(CN1CCCCC1)N1c2ccccc2Sc2ccc(C(F)(F)F)cc21 | inconclusive [inhibitor, single point]
24 | O=C(Nc1ccc2c(c1)OCCO2)C(c1cc2ccccc2o1)N1CCN(c2ccc(F)cc2)CC1 (configuration not stated) | inactive

Row | Structure (SMILES) | Potency
25 | OCC[C@@H]1C[C@H](O)[C@@H](O)[C@]2(CCc3ccccc3CO2)O1 | inactive
26 | O=C(COC(=O)c1ccc(O)cc1)NCCc1c[nH]c2ccccc12 | inconclusive [inhibitor, single point]
27 | CCCC[C@@H]1C=C(C(=O)O)[C@H](c2ccc(CC)cc2)N1S(=O)(=O)c1ccc(C)cc1 | inactive
28 | COC(=O)Nc1csc2c1NC(=O)CCCC2 | inactive
29 | Cn1nccc1C(=O)NC1CCCc2c1cnn2-c1cc(F)cc(F)c1 (configuration not stated) | inconclusive [inhibitor, partial curve]
30 | CCOC(=O)c1c(-c2ccccc2)csc1NC(=S)NC(=O)c1ccccc1 | inconclusive [inhibitor, single point]
31 | COc1cc2oc(=O)cc(-c3ccc(-c4ccc(CO)cc4)cc3)c2c(OC)c1OC | active: 18.4 µM
32 | C[C@@H]1CN([C@@H](C)CO)C(=O)c2cc(Br)cnc2O[C@@H]1CN(C)C(=O)Nc1ccc(F)cc1 | inconclusive [inhibitor, full curve, poor fit]
33 | O=S(=O)(c1ccccc1Br)N(Cc1ccccc1)CC(O)COCc1ccccc1 (configuration not stated) | inconclusive [inhibitor, single point]
34 | O=C(c1cccc(F)c1)N1CCN(Cc2cccc(Br)c2)CC1 | inconclusive [inhibitor, single point]
35 | Cc1cccc(C(=O)Nc2cccc(C(=O)OCc3cc(=O)n4c5c(sc4n3)CCCC5)c2)c1 | inconclusive [inhibitor, single point]
36 | Cc1ccn2cc(-c3cccc(NC(=O)C(C)C)c3)nc2c1 | active: 29.1 µM
37 | CCc1ccc(S(=O)(=O)c2nnn3c2nc(NCc2cccs2)c2sccc23)cc1 | inconclusive [inhibitor, single point]
38 | Cc1cc(C(=O)CSc2nnc(-c3ccco3)o2)c(C)n1C | inconclusive [inhibitor, single point]
39 | CCC(C)(C)C1CCC2(CC1)NC(=S)N(c1ccccc1)N2 (configuration not stated) | inactive
40 | O=C(CN1C(=O)c2ccccc2C1=O)NN1C(=O)c2ccccc2C1=O | inactive
41 | Cc1ccc(S(=O)(=O)N/N=C/c2ccc(OCC(=O)N3CCOCC3)cc2)cc1 | inactive
42 | CCCSc1nc(N2CCCC2)c2c(c1C#N)CC(C)(C)OC2 | inconclusive [inhibitor, partial curve]
43 | COc1ccccc1C(=O)NC(=O)COC(=O)C1(C)CC1(Cl)Cl (configuration not stated) | inactive
44 | CC(C)(C)OC(=O)[C@H](Cc1ccccc1)NC(=O)c1nc[nH]c1C(=O)N1CCN(c2ccccc2)CC1 | inconclusive [inhibitor, partial curve, poor fit]
45 | CCOCCOC(=O)C1=C(C)NC2=C(C(=O)CC(c3cccs3)C2)C1c1ccsc1 (configuration not stated) | inconclusive [inhibitor, single point]
46 | CC1CC(C)(C)NC(=S)N1CCCC(=O)NCCc1ccc(Cl)cc1 (configuration not stated) | inconclusive [inhibitor, single point]
47 | O=C(Nc1ccccc1F)C(Cc1ccccc1)n1cccc1 (configuration not stated) | active: 14.6 µM
48 | COc1ccc(-c2c3c(=O)n(C)c(=O)n(C)c3c3c(-c4ccccc4)nc4ccccc4n23)cc1 | active: 2.31 µM

Row | Structure (SMILES) | Potency
49 | COc1ccccc1C(=O)NC(CCSC)C(=O)NNC(=O)c1ccc(F)cc1 (configuration not stated) | inactive
50 | O=C(Nc1nccs1)c1cccc2ccccc12 | inactive
51 | O=C(Cc1ccc(-n2c(=O)[nH]c3ccccc3c2=O)cc1)N1CCN(c2cccc(Cl)c2)CC1 | inconclusive [inhibitor, single point]
52 | CCOc1ccccc1Oc1cn[nH]c1-c1ccc(OCC(=O)NN)cc1O | inactive
53 | COc1cc2cncc(Cc3ccc(Cl)cc3)c2cc1OC | active: 18.4 µM
54 | CN(Cc1ccccc1)C(=O)c1cccc(NC(=O)Cc2cccc(NC(=O)C3CCN(C(=O)c4ccccc4)CC3)c2)c1 | inconclusive [inhibitor, single point]
55 | C=CCn1c(N2CCN(c3ccc(OC)cc3)CC2)nc2c1c(=O)n(C)c(=O)n2C | active: 18.4 µM
56 | COc1ccccc1N1CCN(c2cc(N3CCCC3)nc(C)n2)CC1 | inconclusive [inhibitor, single point]
57 | Cc1ccccc1OCCOC(=O)c1c(-c2ccccc2)noc1C | active: 18.4 µM
58 | COc1ccc(Cn2c(C(=O)O)c(CNCc3cccs3)c3ccc(C)cc32)cc1 | active: 18.4 µM
59 | CC(=O)c1c(O)cc(C)n(Nc2nc(C)cc(C)n2)c1=O | inconclusive [inhibitor, single point]
60 | CCC(=O)c1ccc(OCCSc2ncccn2)cc1 | active: 18.4 µM
61 | Cc1ccc(S(=O)(=O)N(C)C)cc1NC(=S)Nc1ccc2cn[nH]c2c1 | inactive
62 | O=[N+]([O-])c1cc(/C=N/O)ccc1SCc1ccccc1Cl | inconclusive [inhibitor, single point]
63 | COc1cccc(-c2cncnc2-n2ccnc2)c1 | inconclusive [inhibitor, partial curve]
64 | CC(C)CCNC(=O)NC(=O)COC(=O)/C=C/c1cc(Br)ccc1F | inconclusive [inhibitor, single point]
65 | CCOc1ccc2c(c1)C(C)=CC(C)(C)N2S(=O)(=O)c1ccc(F)cc1 | inconclusive [inhibitor, single point]
66 | CCCc1nc(C)cc(N2CCN(c3ccccc3)CC2)n1 | active: 20.6 µM
67 | O=C(CCCN1C(=O)/C(=C/c2cccs2)SC1=S)Nc1cccnc1 | inactive
68 | CCC(CC)C(=O)NC12CC3CC(CC(C3)C1)C2 | inactive
69 | COc1cc(-c2cc3nc(NC4CCCCC4)ccn3n2)cc(OC)c1OC | active: 10.3 µM
70 | O=C(Nc1ccc2nc(SCC(=O)N3CCOCC3)sc2c1)c1ccc(F)cc1 | active: 11.6 µM
71 | Cc1c(-c2ccccc2)c(=O)oc2ccc(O)cc12 | inconclusive [inhibitor, full curve, poor fit]
72 | Cc1ccc(SCc2[nH]nc3c2C(c2ccco2)C(C#N)=C(N)O3)cc1 (configuration not stated) | inconclusive [inhibitor, single point]
